The results in this text go back to ChEMBL document CHEMBL4888484, “Replenishing the malaria drug discovery pipeline: Screening and hit evaluation of the MMV Hit Generation Library 1 (HGL1) against asexual blood stage Plasmodium falciparum ,using a nano luciferase reporter read-out” (2022).

SMILES strings stand for the structures. About 540 (0.36%) of roughly 150,000 compounds showed an effect of 50% or more. This is one part of the list.

The term % Inhibition denotes the change of the read-out against control, counted positive when it falls.

This assay deals with Plasmodium falciparum. Description: Primary screen in NF54 nanoGlo assay, in single point, at 2uM, 72h; a lower Z score goes with more inhibition. It counts as functional, Erythrocyte. The following applies: timepoint 72 hour.
As to `COc1cc(F)c(-c2nc3c(cnn3Cc3ccncc3)[nH]2)cc1OC`, the “% Inhibition” value was determined as 4% and the Z score is recorded as -0.6.
With `COc1ccc(C(=O)N(CC(=O)N2CCN(c3ccc(-c4ccc(OC)cc4)nn3)CC2)[C@@H](C)c2ccccc2)cc1`, the “% Inhibition” value was -8% and the Z score was 0.99.
Taken in the same sequence, the figures for `CCC(=O)N1CCc2sc(S(=O)(=O)Nc3ccc(F)c(C)c3)cc2C1` were 3% and -0.52.
Taken in the same sequence, the figures for `Cc1nccn1CCCC(=O)N1CC[C@](C)(O)[C@H](C)C1` were -4% and 0.77.
Consider `CCC(CC)NCc1cc(Br)ccc1OC`, for which the “% Inhibition” value is listed as -3% and the Z score is reported as 0.5.
Taken in the same sequence, the figures for `CC(C)c1nnc2n1CCC1(CC2)CCN(C(=O)Nc2ccccc2)CC1` were -8% and 0.75.
For `COc1ccccc1CN1CCC(CN(Cc2cccc(OCCO)c2)CC(C)C)CC1`, in that order: -6% and 0.95.
Take `COc1ccc(CN2CCCS(=O)(=O)CC2)cc1OCc1ccccc1`: the “% Inhibition” value is on record as -5% and the Z score is on record as 0.97.
For `Cc1cc(C(=O)N2CCOCC2)cc2c1N(C)S(=O)(=O)c1ccccc1-2`, in that order: 7% and -0.9.
Turning to `COC1(C)CC(Nc2nc(N)c3cnn(C)c3n2)C1(C)C` (stereo unspecified), the “% Inhibition” value is -9% and the Z score was found to be 1.57.
Regarding `CC(C)[C@@H](C#N)N1CCN(C(=O)c2cccc(-n3ccnc3)c2)CC1`, the “% Inhibition” value was -7% and the Z score is on record as 0.68.
For `N#Cc1ccc(C(=O)NCc2nccn2CCCc2ccccc2)[nH]1`, in that order: 0% and -0.03.
With `CCN(c1ccccc1)S(=O)(=O)c1cc(-c2nc(C)cs2)sc1C`, the “% Inhibition” value is listed as -6% and the Z score came to 0.68.
As for `CNc1snc(C)c1C(=O)N1CCN(Cc2ccc(-c3cccc(F)c3)s2)CC1`, the “% Inhibition” value is 2% and the Z score is -0.21.
Taken in the same sequence, the figures for `Cc1noc(C)c1C(=O)NCc1ccnc(-c2cccnc2)c1` were -6% and 0.89.
With `CCOC(=O)c1cnn(-c2ccccn2)c1CN1CCC(O)(c2cccc(C(F)(F)F)c2)CC1`, the “% Inhibition” value is 5% and the Z score is reported as -0.65.
Take `NC1(c2noc(Cn3ncc4ccccc4c3=O)n2)CCC1`: the “% Inhibition” value was found to be 15% and the Z score is listed as -1.25.
Taken in the same sequence, the figures for `CC#CC[N+](C)(CC#CC)CC(=O)c1ccccc1` were -1% and 0.07.
`c1ccc(Cn2c(CN3CCCCC3)nc3ccccc32)cc1`: the “% Inhibition” value is recorded as -12% and the Z score was 1.55.
As for `O=C(NCc1cncc(-c2ccoc2)c1)Nc1ccccc1C(F)(F)F`, the “% Inhibition” value turned out to be 9% and the Z score was -1.15.
For `COCc1nc2n(n1)[C@@H](c1ccc(C(C)C)cc1)C[C@@H](C)N2`, in that order: 9% and -1.12.
With `COc1ncc(-c2c(-c3ccccc3)ncn2CCNC(C)=O)cn1`, the “% Inhibition” value was -18% and the Z score came to 1.56.
In the case of `CC(C)CCn1c(N2CCC[C@H](C(=O)NC3CC3)C2)nc2ccccc21`, the “% Inhibition” value was -5% and the Z score amounted to 0.5.
Take `O=C(NCCCN1CCOCC1)c1nnc(Cc2ccccc2Cl)o1`: the “% Inhibition” value was 2% and the Z score is given as -0.27.
For `Cc1cccc2nc(C(=O)N(C)Cc3ncon3)c(F)n12`, in that order: -1% and 0.13.
As to `Cc1ccc(N2CCN(Cc3nc(C(=O)NCC4CC4)co3)CC2)cc1`, the “% Inhibition” value is reported as -9% and the Z score is 1.36.
Take `CCS(=O)(=O)NCc1ccc(F)c(C)c1`: the “% Inhibition” value is listed as -3% and the Z score is 0.29.
For `O=C(CN1C(=O)NC2(CCCCCCC2)C1=O)NC1CC1`, in that order: 17% and -1.94.
For `COc1ccc(N(C)Cc2nnc(-c3ccco3)o2)cc1OC`, in that order: 0% and -0.01.
Taken in the same sequence, the figures for `CS(=O)(=O)CCC(=O)Nc1ccc(F)c(Br)c1` were 8% and -1.1.
In the case of `CC[C@H]1CC[C@@H](C)N(C(=O)c2ccc3[nH]c(=O)[nH]c3c2)C1`, the “% Inhibition” value is on record as -12% and the Z score turned out to be 1.16.
Consider `Cc1ccc(CNC(=O)[C@@H](C)C2CCOCC2)cc1C`, for which the “% Inhibition” value is listed as 30% and the Z score was -0.61.
For `CC(C)c1cc(C(=O)N2CCNCC2)n(C)n1`, in that order: -7% and 0.76.
In the case of `Cc1ccc(CNC(=O)C2CCN(S(=O)(=O)c3ccc4c(ccn4C)c3)CC2)o1`, the “% Inhibition” value is given as -22% and the Z score is reported as 3.44.
For `N#Cc1ccc(F)cc1CN1CCN(C(=O)CN2CCOCC2)CC1`, in that order: -9% and 1.16.
For `CC(=O)N[C@@H]1C[C@H](CCc2ccccc2)O[C@H](c2cnn3cccnc23)C1`, in that order: 0% and -0.03.
Turning to `Cc1ccccc1[C@H]1CN(C(=O)C2(C)CCNCC2)C[C@@H]1C(=O)O`, the “% Inhibition” value is on record as 2% and the Z score is -0.32.
Taken in the same sequence, the figures for `CN1CCC[C@H](CN(CCc2ccccc2)C(=O)Cn2cncn2)C1` were -5% and 0.56.
For the molecule `Cc1c(NC(=O)N[C@@H](C)c2nc(CC(C)C)no2)cc2[nH]cnc2c1C`, the “% Inhibition” value was -12% and the Z score turned out to be 1.79.
Taken in the same sequence, the figures for `NC(=O)[C@@H]1CCCCN1C(=O)CNC(=O)CC1CCCCC1` were -13% and 1.31.
Taken in the same sequence, the figures for `N#Cc1ccc(C(=O)NCc2cc(-c3ccccc3F)no2)cn1` were -1% and 0.15.
With `O=S(=O)(CC1CCC1)N1CC2(CCCO2)C1C1CC1` (stereo unspecified), the “% Inhibition” value is listed as -4% and the Z score was determined as 0.66.
Regarding `CN(C)[C@H]1CCC[C@@H]1Nc1nnc(-c2ccccc2)s1`, the “% Inhibition” value is recorded as -11% and the Z score came out at 1.49.
Take `O=C(CN1C(=O)C2CC=CCC2C1=O)N1CCN(c2ncccn2)CC1` (stereo unspecified): the “% Inhibition” value came out at 0% and the Z score is -0.08.
As for `CCn1cc(CN2CC[C@H](CO)[C@H](NC(=O)c3cccnc3)C2)cn1`, the “% Inhibition” value is -6% and the Z score came to 0.86.
For `O=C(C[C@@H]1OCCc2ccccc21)NCCC(=O)N1CCCCCC1`, the “% Inhibition” value turned out to be 2% and the Z score is recorded as -0.28.
For `CC1CCC(C)C(NC2=NS(=O)(=O)c3ccccc32)C1` (stereo unspecified), the “% Inhibition” value is 32% and the Z score is -3.62.
With `Cc1c(C(=O)N2CCN(c3ccccc3Cl)CC2)nnn1C1CCNCC1`, the “% Inhibition” value is on record as -13% and the Z score turned out to be 1.18.
As to `CN1CC2(CCN(Cc3ccccc3C#N)CC2)C[C@@H](c2ccccc2)C1=O`, the “% Inhibition” value was -23% and the Z score turned out to be 2.21.
Taken in the same sequence, the figures for `COc1ccc([C@@]2(C)NC(=O)N(CC(=O)Nc3cc(C)nn3-c3ccc(C)cc3)C2=O)cc1OC` were -8% and 1.13.
As for `COCC1(NC(=O)Nc2ccc(OCc3cccnc3)cc2)CCC1`, the “% Inhibition” value is on record as -2% and the Z score is on record as 0.3.
Taken in the same sequence, the figures for `O=C(CCc1ccccc1)NC1CCN(c2ccccc2C(=O)N2CCN(C3CCCCCC3)CC2)CC1` were -16% and 2.12.
Consider `CCc1ccc(NC(=O)CN(C)C2CCN(c3ccccn3)CC2)cc1`, for which the “% Inhibition” value is given as -16% and the Z score was 2.62.
Take `COc1cccc(Nc2ccc(NC(=O)N3CCO[C@](C)(C(F)F)C3)nc2)c1`: the “% Inhibition” value was -3% and the Z score is listed as 0.38.
For `C[C@@H](C(=O)NCCc1csc(N)n1)N1CCN(C)CC1`, in that order: -11% and 2.06.
Taken in the same sequence, the figures for `CC1=NN(C(=O)c2cccnc2)[C@@](O)(c2cccnc2)C1` were 8% and -1.46.
Taken in the same sequence, the figures for `O=C(c1ccccn1)N1C[C@H]2CC[C@@H](C1)N(C(=O)Nc1cccc(Cl)c1)C2` were -1% and 0.06.
In the case of `CN(Cc1ccc(C#N)cc1F)C1CCCCC1S(C)(=O)=O` (stereo unspecified), the “% Inhibition” value is on record as -7% and the Z score is on record as 0.98.
In the case of `Cc1cccc(-n2c(=O)c3ccccc3n([C@@H](C)C(=O)NCc3cccc(C(F)(F)F)c3)c2=O)c1C`, the “% Inhibition” value worked out at 6% and the Z score is -0.75.
As for `O=C(c1nc2ccc(Cl)cn2c1F)N1CCC[C@@]2(CCOC2)C1`, the “% Inhibition” value was -10% and the Z score came out at 1.95.
For `Cc1ncc(C(=O)N2CCN(Cc3ccc(C)c(C)c3)C(=O)C2)s1`, in that order: -13% and 1.77.
For the molecule `CCCn1ccnc1-c1cn([C@H]2CCN(Cc3ccccc3)C2)nn1`, the “% Inhibition” value is -4% and the Z score is on record as 0.6.
Taken in the same sequence, the figures for `C=CC[C@H](C)NS(=O)(=O)c1ccc(C(=O)O)c(C)c1` were 9% and -1.58.
For `CCNS(=O)(=O)c1cc(S(=O)(=O)NCC)c(OC)cc1OC`, in that order: 1% and -0.19.
For `O=C(NCc1ccccc1CN1CCCCCC1)c1c[nH]nn1`, in that order: 4% and -0.58.
Turning to `CC[C@H](NC(=O)C(C)(C)OC)c1ncccc1C`, the “% Inhibition” value is -26% and the Z score stood at 2.74.
For `O=C1OC(C(=O)N2CCCCC2C(=O)Nc2ccc(Cl)cc2Cl)Cc2ccccc21` (stereo unspecified), in that order: -4% and 0.46.
Taken in the same sequence, the figures for `COc1ccc(N2C=NS(=O)(=O)c3cccnc32)cc1F` were -6% and 0.91.
For `Cc1cccc2c(=O)n(CCC(=O)Nc3ccccc3Oc3ccccc3Cl)cnc12`, in that order: -8% and 1.23.
Take `Cc1nc(C(F)(F)F)c(Cn2cnc3snc(C)c3c2=O)s1`: the “% Inhibition” value is -15% and the Z score is given as 1.67.
Regarding `CN1CC[C@H](N2CC3(CCC2=O)CCN(c2ncnc4[nH]ccc24)CC3)C1`, the “% Inhibition” value is listed as -10% and the Z score came out at 1.18.
Turning to `O=C(CNC(=O)c1sccc1OC(F)F)Nc1cn[nH]c1`, the “% Inhibition” value amounted to 6% and the Z score is reported as -0.99.
Taken in the same sequence, the figures for `CC(C)(C)n1nnnc1[C@@H]1CC2(CCOCC2)C(=O)N1Cc1ccc(F)cc1Cl` were -8% and 0.88.
Taken in the same sequence, the figures for `CCN1CC2(CCN(C(=O)c3cccc(-c4ncc[nH]4)c3)CC2)CC1=O` were -6% and 0.93.
For `O=C(c1cnc2ccc(F)cc2c1N1CCN(c2ccccc2)CC1)N1CCCCC1`, in that order: -9% and 1.05.
Turning to `O=C(c1nnc2n1CCCC2)N1CCC(c2nc3ccccc3o2)CC1`, the “% Inhibition” value is recorded as -11% and the Z score is reported as 1.81.
With `CC1CC(=O)CCC1C(=O)NCCc1ccccc1Br` (stereo unspecified), the “% Inhibition” value was -24% and the Z score was determined as 2.41.
`CC(C)c1ocnc1C(=O)Nc1ccc(NC[C@H]2CCCO2)c(F)c1`: the “% Inhibition” value is reported as -10% and the Z score was 0.95.
For `COc1ccc(-c2cc(C(=O)N3c4ccc(F)cc4CC[C@@H]3C)c3ccccc3n2)cc1OC`, in that order: -14% and 1.61.
For `COc1ccc(CNC(=O)c2ccc(N3C(=O)CCS3(=O)=O)cc2Cl)cc1OC`, in that order: 0% and 0.06.
Regarding `O=C(C1CCC1c1ccc(F)cc1)N1CCC(c2nnc[nH]2)C1` (stereo unspecified), the “% Inhibition” value was -3% and the Z score was 0.45.
For `Cc1nnc(CN2CCc3[nH]nc(C)c3C2)s1`, in that order: -15% and 1.97.
Taken in the same sequence, the figures for `C[C@@H](CCc1ccccc1)NC(=O)c1cn(CCN)nn1` were -3% and 0.57.
